# Laboratory results as given in article PMC12136788.
# The list shows a part of the results.
# B1: chr1:45660322:45660423:-|5pUTR|ENSG00000159592|unk|total|mutant (ssRNA)
# RNA: GGGAGUUCUACAGUCCGACGAUCUCCCCUUCCCCCCUUCCCCUUUUCCCCUUUCCCCUUUUGGAAACGUGUCAGGAACCAAACCGUUUAAGAUGAGCAGUUGAGGGGACUGAGAGAGUGAUCGACACAGAACCUGGCUUCUUCCAACAGAGGAUUGAGCAUCA
# B2: chr3:149369464:149369565:-|3pUTR|ENSG00000169908|msi1_unk|total|mutant (ssRNA)
# RNA: GGGAGUUCUACAGUCCGACGAUCAAAUAACAUUCCAAUCACUAUUGUAUAUAUGUGCAUGUAUUUUUUAAAUUAAAGAUGUCCCGUUGCUUUUUAUAAGACCAAGAAGGAGAAAAUCCGACAACCUGGAAAGAUUUUUGUUUUCAACAGAGGAUUGAGCAUCA
# B3: chr7:101138466:101138856:+|3pUTR|ENSG00000106366|msi1|FALSE|unique (ssRNA)
# RNA: GGGAGUUCUACAGUCCGACGAUCGAGUGGGGGGACAGAGACUCAGAUGAGGACAGAGUGGUUUCCAAUGUGUUCAAUAGAUUUAGGAGCAGAAAUGCAAGGGGCUGCAUGACCUACCAGGACAGAACUUUCCCCAAUUACAGGCAACAGAGGAUUGAGCAUCA
# B4: chr1:92387783:92387894:+|3pUTR|ENSG00000122484|unk|FALSE|unique (ssRNA)
# RNA: GGGAGUUCUACAGUCCGACGAUCGGGAGCUUAGUGGGCAAGGAGGUAGGGAUAUAAUUUCUCUUCUUGGCUCCACCAGUAAUUAGCUCUGUGGCCCAGUCACCUAAACUUUCUGGACUUCAGUUCAGGUUGUAUGGCAGUAGGCAACAGAGGAUUGAGCAUCA
# B5: chr11:61866962:61867357:+|3pUTR|ENSG00000134824|msi1|FALSE|unique (ssRNA)
# RNA: GGGAGUUCUACAGUCCGACGAUCAGAUUCAGGGGAAGGGCAGGCACCAACAACUCAGAAUGGGGGCUUUCGGGGAGGGCGCCUAGUCCCCCCAGCUCUAAGCAGCCAGGAGGGACCUGCAUCUAAGCAUCUGGGUUGCCAUGGCAACAGAGGAUUGAGCAUCA
# B6: chr19:13098382:13098626:+|3pUTR|ENSG00000008441|msi1|FALSE|unique (ssRNA)
# RNA: GGGAGUUCUACAGUCCGACGAUCACGCAGUAUAUACGAGUAUCUCUAUAUAUAGUACUAAUGGAUUUGGUGUGCUUCCCCCUUAGCGUCCCCCUCCCUCUGCUCCUCCUCCUUCAGCCUGGUCUCCCCCUCUUCUCUGCCCUCCAACAGAGGAUUGAGCAUCA
# B7: chr22:20142972:20143073:+|CDS|ENSG00000099904|msi1|FALSE|unique (ssRNA)
# RNA: GGGAGUUCUACAGUCCGACGAUCGGGGAUCAUGUGGCCCUGCAGCCCCUGCGCUCUGAGGGGGGGCCCCCCACGCCCCACCGUAGCAUUUUUGCCCCCCAUGCACUGCCCAACCGCAACGGCAGCCUGUCCUAUGACAGCCUGCAACAGAGGAUUGAGCAUCA
# B8: ENSG00000136451:be:win_3551|3pUTR|ENSG00000136451|bound_else_gene|NA|bound_elsewhere_windowed (ssRNA)
# RNA: GGGAGUUCUACAGUCCGACGAUCACUACUGGAAGGACUCGUGUAGGGAAAGCCCAAGAAUGACCUUGCUGAGGCCUGGAUUGGGAGGCACAGUGGCCACAUUUGGAGGAAGUUCACAUUUCCUGGCAUGCAGACCCAAAACUGCAACAGAGGAUUGAGCAUCA
# B9: chr2:223959526:223959698:+|CDS|ENSG00000135900|unk|FALSE|unique (ssRNA)
# RNA: GGGAGUUCUACAGUCCGACGAUCCUGGGAUUACCAUGCAGAAAUACAAGCUUUUGGACAUCGGUUACAGGAAAACUUUUCCUUAGAUCUUCUCAAAACUGCAUUUGUUAAUAGCUGCUAUAUUAAAAGUGAGGAGGCCAAACGCAACAGAGGAUUGAGCAUCA
# B10: ENSG00000126261:stop:overlap|stop_codon|ENSG00000126261|stop_codon|NA|stop_codon (ssRNA)
# RNA: GGGAGUUCUACAGUCCGACGAUCAUCUCGUGCUCACCGGUUUCUCCCACAUCGACCUGCCACCAGGGUCUCACUAUUUUGCUUAGGCUGGUCUUGAAGGUCUGGGCUCAAGCGAUUCUCUCACUUUGUCCUCCCAAAGUGUUGCAACAGAGGAUUGAGCAUCA
# B11: ENSG00000136451:be:win_1201|CDS|ENSG00000136451|bound_else_gene|NA|bound_elsewhere_windowed (ssRNA)
# RNA: GGGAGUUCUACAGUCCGACGAUCUUCAGUAUAACAUCCUCUGUGUCGUCUGGGACUAUGUCAAACCCAGUCACAGUGGCAGCUGCAAUGAGCAUGAGAAGUCCAGUAAAUGUUUCAAGUGCAGUUAACAUAACCAGCCCAAUGCAACAGAGGAUUGAGCAUCA
# B12: chr7:33006061:33006162:+|3pUTR|ENSG00000122642|msi1_unk|FALSE|overlapping (ssRNA)
# RNA: GGGAGUUCUACAGUCCGACGAUCGGCAUCUCAGACCACAAAUAGAGAAUUUGAUUCCUCAUUUGCCACAUAAGUCAUCUGCUUAGCUUUUCCUUUCCUUUUUUUUUUUUUUUUUUUUUCUGGAGGCAGAGUCUCCCUUUGUCGCAACAGAGGAUUGAGCAUCA
# B13: chr9:132262671:132262773:-|3pUTR|ENSG00000107290|unk|total|mutant (ssRNA)
# RNA: GGGAGUUCUACAGUCCGACGAUCUGUGCAUUAUUUGACAUUUCCUUUGUCAUCUGCUUUUUAAGCAAAAAAGGGUUUUGUGUCCGAAAUUCUACUUGAGCAGAUUAUAAAGAGCUUUAAAAAACAACUUUCGGUUGCCAAAAGCAACAGAGGAUUGAGCAUCA
# B14: chr5:150709129:150709230:-|3pUTR|ENSG00000132912|msi1|total|mutant (ssRNA)
# RNA: GGGAGUUCUACAGUCCGACGAUCCACAAAACACUUUGAUCAUAAACUUUUUUCUUCAGAAGCCAAACUAACUUGCAGAAUAACCGAGCCACUGGUUUAAUGUUUCCUCAAGACCGGUUUCCGUGUAAGCCCGUAUUCUGUGUGCAACAGAGGAUUGAGCAUCA
# B15: ENSG00000107863:be:win_3051|CDS|ENSG00000107863|bound_else_gene|NA|bound_elsewhere_windowed (ssRNA)
# RNA: GGGAGUUCUACAGUCCGACGAUCAUGCCUGUUUCAGGCUGAAGACAGAGAUGAUAUGCUAGCUUGGAUCAAGACGAUCCAGGAGAGCAGCAACCUAAACGAAGAGGACACUGGAGUCACUAACAGGGAUCUAAUUAGUCGAAGCAACAGAGGAUUGAGCAUCA
# B16: chr10:117282838:117282939:-|3pUTR|ENSG00000165650|unk|total|mutant (ssRNA)
# RNA: GGGAGUUCUACAGUCCGACGAUCCCCCUUGUGUUAUUUUUCUUCCUCUUGGUUUUUGAAUCCGUGUUAAACCGAAUACUGUCCCGAUUCUUAAAAUAUUUUCAUUUCCAUCAUGGUUAUAACAAAUUUGCUGCAUGCCCAAACCAACAGAGGAUUGAGCAUCA
# B17: chr17:46339502:46339774:-|CDS|ENSG00000228696|control|control|control (ssRNA)
# RNA: GGGAGUUCUACAGUCCGACGAUCUGUAGUCACGUGGAAUUUGGAAUGUGGAAAGGAGGUAGAAGUCAUCCUUUCCUCCCCCAUAGCAGCAGGUGUGCAGGCUCUGGUGGUCAGCUGGACUCCAUACUCCCCCACCAGUCACCACAACAGAGGAUUGAGCAUCA
# B18: ENSG00000107863:be:win_1|CDS|ENSG00000107863|bound_else_gene|NA|bound_elsewhere_windowed (ssRNA)
# RNA: GGGAGUUCUACAGUCCGACGAUCAUGAUGGCCACGCGUCGGACUGGUCUGUCUGAGGGAGAUGGUGACAAGCUCAAGGCCUGCGAGGUCUCAAAAAAUAAAGAUGGAAAAGAACAAAGUGAAACUGUAUCACUGUCUGAAGAUCAACAGAGGAUUGAGCAUCA
# B19: chr20:3864521:3864622:+|CDS|ENSG00000088888|msi1|total|mutant (ssRNA)
# RNA: GGGAGUUCUACAGUCCGACGAUCGCCCUGAAAGUGCCUGCCAACCCAGCAUCUGUCAGCACAGUGCCCUCCAAGUUGCCAACCCGCUCAAAGCCCCCUGGUGCAGUGCCUUCUAAUGCGCUCACCAAUCCAGCACCAUCCAAACAACAGAGGAUUGAGCAUCA
# B20: ENSG00000198589:be:win_6251|CDS|ENSG00000198589|bound_else_gene|NA|bound_elsewhere_windowed (ssRNA)
# RNA: GGGAGUUCUACAGUCCGACGAUCGCACUCUUUCUGUCACCUCCUCCGAACUCUAUUUUGAGGUGGAUGAAGAGGAUCCUAACUUCAAAAAAAUCGACCCCAAGAUCUUGGCAUAUACAGAAGGGCUGCAUGGAAAAUGGCUGUCAACAGAGGAUUGAGCAUCA
# B21: chr6:53267885:53267986:-|3pUTR|ENSG00000012660|msi1_unk|total|mutant (ssRNA)
# RNA: GGGAGUUCUACAGUCCGACGAUCUUUAAUGUAAAUCUAACCGUACUUGUAAUUUCUUUCUGCUCCGAAUCUAAAGAUGUGUUCCGAACCUCUUGUUUAAAAAUAACCGACUGCUUAUCAUAAAAUCACAUCUCACACAUUUGACAACAGAGGAUUGAGCAUCA
# B22: chr11:13729208:13729309:+|3pUTR|ENSG00000197601|unk|FALSE|unique (ssRNA)
# RNA: GGGAGUUCUACAGUCCGACGAUCAAAGUUGGUAGAUAUUUGAUUCUUCAUUUUUUGUUUUUUUCAUUAGUUGAAGUGGGUUUUAGUUUUGUUUAAAAUUAUAACCAGCGUAUUUUCACAUCAUUCUGUAAGUUAAAUGAUAUCCAACAGAGGAUUGAGCAUCA
# Biological target: MSI1 full-length (mouse, UniProt Q61474 1-362)
# Sequence of UniProt Q61474 (Q61474 whole entry): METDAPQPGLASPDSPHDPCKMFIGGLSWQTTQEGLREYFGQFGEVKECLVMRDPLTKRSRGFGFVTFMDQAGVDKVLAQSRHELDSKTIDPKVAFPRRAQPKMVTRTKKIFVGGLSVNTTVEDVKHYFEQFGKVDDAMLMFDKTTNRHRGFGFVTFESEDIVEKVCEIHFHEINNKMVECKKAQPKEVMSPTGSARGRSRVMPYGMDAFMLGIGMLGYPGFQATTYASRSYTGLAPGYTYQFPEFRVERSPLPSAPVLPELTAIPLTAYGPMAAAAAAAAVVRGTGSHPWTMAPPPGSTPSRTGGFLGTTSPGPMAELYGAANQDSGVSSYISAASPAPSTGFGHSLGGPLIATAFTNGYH
# Test: nsRBNS (natural sequence RNA bind-n-seq); RBNS binding buffer (assumed for nsRBNS): 25 mM Tris pH 7.5, 150 mM KCl, 3 mM MgCl2, 0.01% Triton X-100, 500 ug/ml BSA, 20 U/ml SUPERase-In, 4 C; UNK is unkempt and MSI1 is Musashi-1; names of the RNAs are library labels; protein concentration not given here; high values mean tight binding
row,Binder,binding signal
1,B1,0.513 enrichment R
2,B2,2.06 enrichment R
3,B3,5.29 enrichment R
4,B4,0.649 enrichment R
5,B5,0.533 enrichment R
6,B6,1.34 enrichment R
7,B7,0.605 enrichment R
8,B8,0.596 enrichment R
9,B9,0.633 enrichment R
10,B10,0.233 enrichment R
11,B11,0.369 enrichment R
12,B12,1.89 enrichment R
13,B13,0.304 enrichment R
14,B14,0.273 enrichment R
15,B15,0.531 enrichment R
16,B16,0.677 enrichment R
17,B17,0.823 enrichment R
18,B18,0.413 enrichment R
19,B19,0.629 enrichment R
20,B20,0.458 enrichment R
21,B21,1.15 enrichment R
22,B22,1.97 enrichment R
